Holding throughout (assay): Primary Screen for Target Class Profiling of Small Molecule Inhibitors of Methyltransferases
Assay [1] concerns the target Glycine N-methyltransferase (Homo sapiens) (UniProt Q14749). The following applies: purified enzyme, MTase-Glo SAH luminescence; measured here: GNMT inhibition; at 40 µM; stronger effect = lower value. The method, boiled down: (§1)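 Each enzyme was reacted with SAM and its substrate, with compounds tested once at 40 uM; SAH formed was read by MTase-Glo luminescence.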
Assay [2] concerns the target Guanidinoacetate N-methyltransferase (Homo sapiens) (UniProt Q14353). The following applies: purified enzyme, MTase-Glo SAH luminescence; measured here: GAMT inhibition; at 40 µM; stronger effect = lower value. The method in brief: as §1
For assay [3], the target named is Histamine N-methyltransferase (Homo sapiens) (UniProt P50135). As to conditions: purified enzyme, MTase-Glo SAH luminescence; measured here: HNMT inhibition; at 40 µM; stronger effect = lower value. The method in brief: as §1
In assay [4] the target is Nicotinamide N-methyltransferase (Homo sapiens) (UniProt P40261). The following applies: purified enzyme, MTase-Glo SAH luminescence; measured here: NNMT inhibition; at 40 µM; stronger effect = lower value. The method in brief:
as §1

In assay [5] the target is Phenylethanolamine N-methyltransferase (Homo sapiens) (UniProt P11086). As to conditions: purified enzyme, MTase-Glo SAH luminescence; measured here: PNMT inhibition; at 40 µM; stronger effect = lower value. The method, boiled down: as §1

The other results are listed elsewhere or left out. Shown are side measurements of this screen, not its main read-out; they come without a call.
% is set by controls: 0 for no effect and ±100 for the full control effect.

With `CCC(=O)N1Cc2ccccc2CC2(CCCN2CC2CCOCC2)C1` (stereo not drawn), the activity change, negative = inhibition in assay [1] was -4.91%; in assay [2], -7.84%; in assay [3], -5.3%; in assay [4], -18.3%; in assay [5], -6.71%.

`CCOc1ccc(S(=O)(=O)N2CCCCCC2)c2ccccc12`: the activity change, negative = inhibition in assay [1] was -2.87%; in assay [2], -9.87%; in assay [3] it was 11.6%; in assay [4] it was -19.5%; in assay [5], -4.15%.

Consider `CC(C)C(=O)O[C@@H]1[C@@H](O)[C@@H](O[C@H]2O[C@H](CO)[C@@H](O)[C@H](O)[C@H]2O)O[C@H](CO)[C@H]1O`, for which the activity change, negative = inhibition was 0% in assay [1]; 20.4% in assay [2]; 13.6% in assay [3]; 7.15% in assay [4]; 3.19% in assay [5].

Consider `COc1ccc(OC)c2c1cc1n2CC(C)(C(=O)NC2CCCCC2)N(Cc2cccc(F)c2)C1=O` (stereo not drawn), for which the activity change, negative = inhibition is -12.3% in assay [1]; -2.76% in assay [2]; -4.95% in assay [3]; -5.27% in assay [4]; -7% in assay [5].

For the compound `Cc1cnc(C(=O)N2CCCC2c2nc(CCOCC3CCCC3)no2)cn1` (stereo not drawn), the activity change, negative = inhibition in assay [1] is -3.94%; in assay [2], -5.47%; in assay [3], -0.966%; in assay [4], -9.76%; in assay [5], -5.2%.

Take `C#CCN(Cc1cc2c(=O)n(C)c(CN3CCN(C)CC3)nc2cc1Cl)c1ccc(C(=O)NCc2cccnc2)cc1`: the activity change, negative = inhibition in assay [1] was -9.41%; in assay [2] it was 16.3%; in assay [3] it was -36.1%; in assay [4] it was -11.4%; in assay [5], -0.901%.

For `Cc1ccc2c(c1)c(-n1cccc1)c1n2CC(C)(C(=O)NC2CCCCC2)N(Cc2ccco2)C1=O` (stereo not drawn), the activity change, negative = inhibition in assay [1] was -14.7%; in assay [2], -2.18%; in assay [3], -8.97%; in assay [4] it was -8.75%; in assay [5], -8.71%.

Take `Oc1ccc([C@@H]2Oc3ccc(O)cc3[C@@H]3CCC[C@@H]32)cc1`: the activity change, negative = inhibition in assay [1] was -10.6%; in assay [2], 1.27%; in assay [3], -29.2%; in assay [4] it was -12.3%; in assay [5], -1.01%.

In the case of `Cc1c(Cl)cccc1N1C(=O)c2cc(-c3ccco3)nn2CC1(C)C(=O)NC1CCCCC1` (stereo not drawn), the activity change, negative = inhibition in assay [1] was -6.97%; in assay [2] it was 3.23%; in assay [3], -4.97%; in assay [4], 1.48%; in assay [5] it was -5.96%.

For the compound `Cc1cc(-c2nc(C(=O)Nc3cn(C4CCOCC4)nc3C(N)=O)co2)ccn1`, the activity change, negative = inhibition is -10.2% in assay [2], -18.4% in assay [4] and -1.66% in assay [5].

Turning to `Cc1ccccc1NC(=O)CN(C)S(=O)(=O)c1ccc2[nH]c3c(c2c1)CCCC3`, the activity change, negative = inhibition in assay [1] is -0.974%; in assay [2] it was 0%; in assay [3], 4.24%; in assay [4] it was 0.137%; in assay [5], 3.2%.

`CCCC1c2cccn2CCN1C(=O)Nc1ccc(Br)cc1F` (stereo not drawn): the activity change, negative = inhibition is -1.06% in assay [1]; 1.38% in assay [2]; -39.2% in assay [3]; 0.537% in assay [4]; 4.75% in assay [5].

As for `CC(C)CNC(=O)c1ccc2c(=O)n(CC(C)C)c3nn(CC(=O)N(C)c4ccccc4)c(=O)n3c2c1`, the activity change, negative = inhibition in assay [1] is 2.83%; in assay [2], 3.4%; in assay [3] it was 5.25%; in assay [4] it was -4.32%; in assay [5], -1.08%.

On to `CN(CCCN1C(=O)c2cc3occc3n2CC1(C)C(=O)NC1CCCCCC1)Cc1ccccc1` (stereo not drawn), for which the activity change, negative = inhibition was -5.72% in assay [1]; -4.08% in assay [2]; -8.35% in assay [3]; -4.34% in assay [4]; -5.48% in assay [5].

Take `Cc1ccccc1CN1C(=O)c2cc3occc3n2CC1(C)C(=O)NC1CCCCCC1` (stereo not drawn): the activity change, negative = inhibition is -0.653% in assay [1]; 3.21% in assay [2]; 2.73% in assay [3]; -7.9% in assay [4]; -8.2% in assay [5].

For `CC(C)(C)NC(=O)Cn1nc2n(Cc3ccccc3)c(=O)c3ccc(C(=O)NC4CCCC4)cc3n2c1=O`, the activity change, negative = inhibition was 1.03% in assay [1]; 2.43% in assay [2]; 4.49% in assay [3]; -2.53% in assay [4]; 1.29% in assay [5].

In the case of `C=C1CO[C@@]2(O[C@H]3CC4C5CC=C6C[C@@H](O)C[C@@H](O[C@@H]7OC[C@H](O)[C@H](O[C@@H]8OC[C@@H](O)[C@H](O)[C@H]8O)[C@H]7O[C@@H]7O[C@@H](C)[C@H](OC(C)=O)[C@@H](OC(C)=O)[C@H]7OC(C)=O)[C@]6(C)C5CC[C@]4(C)[C@@H]3[C@@H]2C)[C@@H](O)[C@H]1OC1OC(C)C(O)C(O)C1O` (stereo partly drawn), the activity change, negative = inhibition in assay [1] is 4.62%; in assay [2], 1.71%; in assay [3] it was 5.47%; in assay [4], -8.07%; in assay [5], 6.29%.

For the compound `COc1ccc2cc3n(c2c1)CC(C)(C(=O)NC1CCCC1)N(Cc1ccccc1F)C3=O` (stereo not drawn), the activity change, negative = inhibition in assay [1] was determined as 4.39%; in assay [2], 2.91%; in assay [3] it was 9.41%; in assay [4], 4.54%; in assay [5] it was 2.57%.

Consider `CC1(C(=O)NC2CCCCC2)Cn2c(ccc2-c2ccco2)C(=O)N1Cc1cccs1` (stereo not drawn), for which the activity change, negative = inhibition is -13.2% in assay [1]; 1.01% in assay [2]; -5.42% in assay [3]; -18.6% in assay [4]; -5.14% in assay [5].

For `COc1ccc(Cl)cc1NC(=O)Cn1nc2n(Cc3ccccc3)c(=O)c3ccccc3n2c1=O`, the activity change, negative = inhibition in assay [1] is 6.42%; in assay [2] it was 0.803%; in assay [3] it was 4.9%; in assay [4], 3.67%; in assay [5], 4.43%.

`CC(O)C(C)n1ncn(-c2ccc(N3CCN(c4ccc(OCC5COC(Cn6cncn6)(c6ccc(Cl)cc6Cl)O5)cc4)CC3)cc2)c1=O` (stereo not drawn): the activity change, negative = inhibition in assay [1] was -1.97%; in assay [2], 7.2%; in assay [3], 6.86%; in assay [4], -0.785%; in assay [5], 10.7%.

Turning to `CCCn1c(=O)c2ccc(Cl)cc2n2c(=O)n(CC(=O)Nc3cc(C)cc(C)c3)nc12`, the activity change, negative = inhibition in assay [1] was determined as 3.2%; in assay [2] it was 0%; in assay [3] it was 6.25%; in assay [4], 3.2%; in assay [5], 1.02%.

Consider `CC(C)OCCCn1c(=O)c2ccccc2n2c(SCC(=O)Nc3ccccc3F)nnc12`, for which the activity change, negative = inhibition is -5.57% in assay [1]; 3.44% in assay [2]; -0.715% in assay [3]; -3.63% in assay [4]; -0.406% in assay [5].

For the compound `O=S(=O)(Cc1ccccc1)Nc1ccc(-c2ccc3c(cnn3-c3ccc(F)cc3)c2)c(C(F)(F)F)c1`, the activity change, negative = inhibition in assay [1] is -1.6%; in assay [2], -22.4%; in assay [3] it was 6.12%; in assay [4], -36.5%; in assay [5], -10.3%.

Take `CNC(=O)c1nn(C)c2c1C(C)(C)Cc1cnc(Nc3ccc(N4CCN(C)CC4)cc3)nc1-2`: the activity change, negative = inhibition in assay [1] is -6.97%; in assay [2], 7.07%; in assay [3] it was -36.3%; in assay [4], -11%; in assay [5], 6.28%.

Regarding `CCOC(=O)C1CCC(CNC(=O)N2CCn3c(C)ccc3C2CC)CC1` (stereo not drawn), the activity change, negative = inhibition in assay [1] is 1.82%; in assay [2], 0%; in assay [3] it was 2.05%; in assay [4], 4.62%; in assay [5] it was -2.33%.

In the case of `CCOC(=O)c1cc2n(n1)CC(C)(C(=O)NCc1ccc(Cl)cc1)N(Cc1cccc(C)c1)C2=O` (stereo not drawn), the activity change, negative = inhibition in assay [1] came out at 7.5%; in assay [2] it was 0%; in assay [3], 10.9%; in assay [4] it was 4.56%; in assay [5], 8.07%.

As for `O=C(O)CCc1nccc2c1[nH]c1ccccc12`, the activity change, negative = inhibition in assay [1] is -4.11%; in assay [2], -2.95%; in assay [3] it was 4.99%; in assay [4] it was -11.2%; in assay [5], -2.97%.

Regarding `COc1cc(C(=O)OC[C@@]2(O)CO[C@@H](O[C@H]3[C@H](Oc4ccc(C(=O)O)cc4OC)O[C@H](CO)[C@@H](O)[C@@H]3O)[C@@H]2O)ccc1O`, the activity change, negative = inhibition in assay [1] is 0%; in assay [2] it was 3.37%; in assay [3] it was 2.64%; in assay [4] it was -8.52%; in assay [5] it was 5.68%.

The values are drawn from PubChem BioAssay AID1745853 (National Center for Advancing Translational Sciences (NCATS), 2022).
